From PubChem BioAssay AID488969 (Vanderbilt High Throughput Screening Facility, 2010)
In all, about 110,000 compounds were measured (“z-score”: median about -0.1, highest 2% from about 2 on). The list shows a part of the results. The source made the active and inactive calls.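 The calls were made as follows: active = z-score in the third read window above 3 or below -3; inactive = the rest.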

target: Metabotropic glutamate receptor 8 (Rattus norvegicus) (UniProt P70579); test: mGluR8 Gi/Go-coupled signaling modulation – cell-based, rat, thallium flux, HTS, primary screen (AID 488969); conditions: HEK293 rat mGluR8, GIRK (G protein-gated inwardly rectifying potassium channel) thallium flux, FluoZin2; at 10 µM; stronger effect = higher value; submaximal glutamate (EC20) added with thallium
Sequence of UniProt P70579 (P70579 whole entry, looked up): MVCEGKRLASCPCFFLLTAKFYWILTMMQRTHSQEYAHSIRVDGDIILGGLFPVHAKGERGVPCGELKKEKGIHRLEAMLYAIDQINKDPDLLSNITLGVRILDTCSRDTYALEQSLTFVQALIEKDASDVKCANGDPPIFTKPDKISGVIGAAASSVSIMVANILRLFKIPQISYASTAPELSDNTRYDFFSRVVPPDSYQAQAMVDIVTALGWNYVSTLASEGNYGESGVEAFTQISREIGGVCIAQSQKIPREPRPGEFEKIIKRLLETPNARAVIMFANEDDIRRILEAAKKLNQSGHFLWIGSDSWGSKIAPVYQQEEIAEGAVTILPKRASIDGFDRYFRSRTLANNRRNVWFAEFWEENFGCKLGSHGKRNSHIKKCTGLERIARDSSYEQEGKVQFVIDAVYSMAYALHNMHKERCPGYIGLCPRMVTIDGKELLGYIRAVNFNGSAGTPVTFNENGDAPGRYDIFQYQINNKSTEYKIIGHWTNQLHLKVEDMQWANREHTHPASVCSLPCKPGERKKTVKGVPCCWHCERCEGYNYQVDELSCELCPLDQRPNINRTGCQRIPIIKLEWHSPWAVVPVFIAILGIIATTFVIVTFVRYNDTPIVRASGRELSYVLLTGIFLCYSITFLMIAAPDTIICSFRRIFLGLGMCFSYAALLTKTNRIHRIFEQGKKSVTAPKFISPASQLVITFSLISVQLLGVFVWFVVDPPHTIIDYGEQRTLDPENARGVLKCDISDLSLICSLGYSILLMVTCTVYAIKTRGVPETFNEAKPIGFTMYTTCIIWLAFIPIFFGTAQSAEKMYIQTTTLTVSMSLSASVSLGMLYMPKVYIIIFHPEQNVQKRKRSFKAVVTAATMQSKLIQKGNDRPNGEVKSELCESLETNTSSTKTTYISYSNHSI

| SMILES | z-score |
| --- | --- |
| CC1=NN(/C(=N\c2nnc(C)s2)Nc2ccccc2)[C@H](c2ccc(C)cc2)S1 | -0.444 |
| CCOc1ccc(NC(=O)C2CC(C)=C(C)CC2C(=O)O)cc1 (stereo unspecified) | -0.29 |
| O=C(Nc1ccc(Cl)cn1)c1ccc(-c2ccc(Cl)c(Cl)c2)o1 | -0.219 |
| COC(=O)c1cn(NC(=O)c2ccc(OC)c(OC)c2)c(=O)c2ccccc12 | 0.137 |
| COc1ccccc1NC(=O)c1sc2ncn(Cc3ccccc3C)c(=O)c2c1C | -0.027 |
| CCC1OC23CCCCC2C(C#N)(C(=N)O3)C1(C#N)C#N (stereo unspecified) | 0.141 |
| CCCN1Cc2cccc(C(=O)N3CCN(c4ccccc4)CC3)c2C1=O | -0.225 |
| O=C(COc1ccc(S(=O)(=O)NC2CCCC2)cc1)N1CCCCCC1 | -0.036 |
| O=C(CN(C1CCCCC1)S(=O)(=O)c1ccccc1)NCc1ccco1 | -0.257 |
| COc1cccc(C(=O)Nc2nnc(-c3cccs3)o2)c1 | 0.124 |
| COC(=O)/C(=C/c1cn(C)c2ccccc12)[N+](=O)[O-] | 0.0204 |
| COc1ccc2o/c(=N/NC(=S)Nc3ccccc3)c(C(N)=O)cc2c1 | -0.552 |
| Cc1ccc(S(=O)(=O)CCSc2nc(C)cc(C)c2C#N)cc1 | -0.737 |
| CC1(NC(=O)COc2ccccc2-c2ccccc2)CCS(=O)(=O)C1 (stereo unspecified) | -0.149 |
| CCOC(=O)CN1C(=O)S/C(=C/C=C/c2ccc(N(C)C)cc2)C1=O | -0.189 |
| CCCCOc1ccc(C(=O)N/C(=C\c2cccc([N+](=O)[O-])c2)C(=O)OCCC)cc1 | -0.146 |
| Cc1cccc(C(=O)NCCN(C)C)c1 | -0.0922 |
| CCOC(=O)C1CN(S(=O)(=O)c2ccccc2)c2cc(S(=O)(=O)CC)ccc2O1 (stereo unspecified) | -0.661 |
| COc1cc(CNCCO)cc(Br)c1OCc1ccccc1Cl | 1.32 |
| CSc1cc(C)n(-c2ccccc2)c(=S)c1C(C)=O | -0.0675 |
| O=C(NCCNS(=O)(=O)c1ccccc1)N1CCOCC1 | 0.663 |
| Cc1cc(/C=N/Nc2ccc([N+](=O)[O-])cn2)c(C)n1-c1ccccc1 | 1.04 |
| COc1ccccc1N1CCN(C(=O)c2oc3cc(C)cc(C)c3c2C)CC1 | 0.208 |

| SMILES | z-score |
| --- | --- |
| CC(C)(C)n1nc(-c2ccc(F)cc2)c2c(N)ncnc21 | -0.235 |
| CCC(=O)N=c1sc2cc([N+](=O)[O-])ccc2n1CCOC | -0.0152 |
| Cc1cc(C)n(-c2nc3ccccc3nc2N2CCN(C(=O)c3ccccc3)CC2)n1 | -0.275 |
| CSc1nc2sc3c(c2c(=O)n1C1CCCCC1)CCN(C)C3 | 0.112 |
| CCOC(=O)c1c(C)[nH]c(C(=O)COC(=O)CNC(=O)c2ccc(Cl)cc2Cl)c1C | -0.202 |
| COc1cccc(C(=O)CSc2nnnn2C)c1 | -0.273 |
| Nc1nc(SCc2ccc(Cl)cc2Cl)nc2nc3c(cc12)CCCC3 | -0.129 |
| O=C(NNC(=O)c1ccccc1-n1cccc1)c1ccccc1 | -0.124 |
| Cc1cccc(N2C(S)=C(C#N)C(=O)NC2c2cccs2)c1 (stereo unspecified) | -1.01 |
| Cc1cccc(C(=O)N/N=C/c2ccncc2)c1 | 0.199 |
| C=C(C)CN(CC)c1nc(N)c2c(N)nc3c(c2c1C#N)CC(=O)N3C12CC3CC(CC(C3)C1)C2 | 0.632 |
| COC(=O)c1cn(-c2ccccc2)nc1-c1ccccc1 | -0.105 |
| Cc1cc(NC(=O)COC(=O)c2cccc(OCc3ccccc3)c2)no1 | 0.388 |
| CCOc1ccccc1NC(=O)CC1Nc2ccccc2NC1=O (stereo unspecified) | -0.513 |
| Cn1cc(SCC(=O)NCC2CCCO2)c2ccccc21 (stereo unspecified) | -0.131 |
| COc1ccc(OC)c(NC(=O)CSc2nnc(C3CCCCC3)n2-c2ccccc2)c1 | -0.765 |
| Cc1cc(C)n(/N=C/c2c[nH]c3ccccc23)c(=O)c1 | -0.182 |
| O=c1[nH]c(Nc2ccccc2)cc2ccccc12 | -0.194 |
| CCOC(=O)C1=C(O)/C(=C/c2cc(OC)c(OC)c(OC)c2)N=C1C | 0.29 |
| Cc1cc(C)n(C(=O)CNC(=O)c2ccc3c(c2)OCCO3)n1 | -0.237 |
| Cc1ccc(Nc2nc(C(=O)NCc3ccco3)cs2)cc1 | -0.436 |
| CCN(c1ccc(NC(=O)COC(=O)c2ccc(S(=O)(=O)N3CCCC3)cc2)cc1)C(C)C | -0.381 |
| COC(=O)CN1C(=O)C2(C(C#N)=C(N)Oc3ccccc32)C2=C1CC(C)(C)CC2=O (stereo unspecified) | -0.271 |

| SMILES | z-score |
| --- | --- |
| Cn1cnnc1SCc1ccc(C#N)cc1Cl | 0.32 |
| COCCNC(=S)N(Cc1cccnc1)Cc1ccc(OC)c(OC)c1 | -0.0571 |
| CCCCC(CC)Cn1c2nc3ccccc3nc2c2c(=N)oc(C)nc21 (stereo unspecified) | -0.0501 |
| CC1=NN(c2cccc(C(=O)O)c2)C(=O)/C1=C\C=C\c1ccco1 | -0.885 |
| CCOC(=O)C1=C(C)NC(=S)NC1c1ccc(-c2ccc(Cl)cc2)o1 (stereo unspecified) | 0.0328 |
| O=C(NC1CCCC1)c1ccc(CS(=O)(=O)c2ccc(Br)cc2)o1 | -0.0628 |
| O=C(O)C1C2C=CC(C3CC23)C1C(=O)O (stereo unspecified) | 0.289 |
| O=C(NCc1ccccc1Cl)c1cccc(C(F)(F)F)c1 | 0.146 |
| COc1c(F)c(F)c(C(=O)Nc2ccc(NC(=O)c3ccco3)cc2)c(F)c1F | 0.273 |
| CCOC(=O)/C(=C\c1c[nH]c2ccccc12)NC(C)=O | -0.156 |
| Cc1ccc(C(c2sc3ncnn3c2O)N2CCCCC2)cc1 (stereo unspecified) | -0.0709 |
| CCOC(=O)N1CCN(CCC(=O)Nc2cccc(Br)c2)CC1 | -0.16 |
| Nc1cc(C(=O)N2CCCC2)cc(C(=O)N2CCCC2)c1 | 0.00992 |
| O=C(NCc1cccnc1)c1cccc(NC(=O)c2ccco2)c1 | 0.316 |
| O=C(NCCCN1CCCCCC1)c1ccc(N2CCCC2=O)cc1 | -0.0426 |
| Cc1c(C(=O)Nc2cccc([N+](=O)[O-])c2)csc1-c1ccccc1 | 0.0674 |
| CC(C)(C)c1ccc(C(=O)N2CCC(C(=O)NCC3CCCO3)CC2)cc1 (stereo unspecified) | 0.584 |
| Cc1nn(CC(=O)NNC(=S)Nc2ccccc2)c(C)c1[N+](=O)[O-] | -1.25 |
| O=C(COc1ccc(S(=O)(=O)NC2CCCCC2)cc1Cl)NCC1CCCO1 (stereo unspecified) | -0.0074 |
| O=C(NNC(=S)NC1CCCCC1)c1sc2ccccc2c1Cl | -0.163 |
| CN(C)S(=O)(=O)N1CCN(C(=O)N2CCOCC2)CC1 | -0.179 |
| Cc1cc(C)nc(NC(=O)CSc2nc3ccccc3o2)n1 | -0.472 |
| COC(=O)c1sccc1Oc1ccc(F)cc1[N+](=O)[O-] | 0.137 |

| SMILES | z-score |
| --- | --- |
| Cc1nc2ccccc2n1C1CC(=O)N(Cc2ccccc2)C1=O (stereo unspecified) | -0.114 |
| CCn1ncc(/C=C/C(=O)Nc2c(C)nn(CC)c2C)c1C | -0.306 |
| CS(=O)(=O)N(CC(=O)N/N=C/c1ccc(OCC(=O)N2CCOCC2)cc1)c1ccccc1Cl | 1.52 |
| CCC(=O)Nc1ccc(C(=O)CSc2nnc(-c3ccc(NS(C)(=O)=O)cc3)n2C)cc1OC | 0.001 |
| CCOC(=O)Cc1csc(NC(=O)CS(=O)(=O)Cc2ccccc2)n1 | 0.0101 |
| CC(C)[C@H](NC(=O)c1ccccc1)C(=O)OCC(=O)N1CCCc2ccccc21 | 0.0154 |
| O=C(CCc1nc(-c2ccccc2F)no1)NCCN1CCc2ccccc2C1 | -0.354 |
| Cc1nn2c3c(cnc2c1-c1ccccc1)C(=O)CCC3 | -0.149 |
| COc1ccccc1S(=O)(=O)Cc1ccc(C(=O)N2CCCC2)o1 | -0.34 |
| CCNC(=S)N/N=C(\C)c1ccc(Cl)s1 | active: 4.7 |
| CCN(CC)C(=O)Oc1ccc2c(=O)c(-c3ccc(OC)cc3)c(C)oc2c1 | -0.142 |
| Cc1cccn2c(=O)c3cc(C#N)c(=O)n(CCCN4CCOCC4)c3nc12 | -0.248 |
| Clc1ccc(CSc2nnc(-c3cccnc3)o2)cc1 | -0.291 |
| O=C(NCCCCNC(=O)c1cccnc1)c1cccnc1 | active: 8.98 |
| Cc1oc(-c2ccccc2)cc1C(=O)Nc1cccc(C(=O)O)c1 | -2.65 |
| Cc1ccc2nc3c(cc(C(N)=S)c(=N)n3CCCOC(C)C)c(=O)n2c1 | 0.823 |
| CCC(=O)c1cn(CC(=O)NCc2ccco2)c2ccccc12 | -0.0249 |
| Cc1cc2ccccc2n2c(SCC(=O)NCc3cccs3)nnc12 | -0.225 |
| COC(=O)c1ccccc1NS(=O)(=O)c1ccc2[nH]c(=O)[nH]c2c1 | -0.413 |
| CS(=O)(=O)N(CC(=O)O)c1cccc(Cl)c1 | -0.142 |
| O=C(Nc1nc(-c2ccccc2)c(-c2ccccc2)s1)c1ccc(S(=O)(=O)N2CCCCC2)cc1 | -0.0357 |
| CCc1c(C)sc(NC(=O)C2CCCO2)c1C#N (stereo unspecified) | 0.364 |
| Cc1ccc(NC(=O)C2(c3ccc([N+](=O)[O-])cc3)CCCC2)cc1 | 0.0272 |

| SMILES | z-score |
| --- | --- |
| CC1=CC(C)(C)N(C(=O)CSc2ncn[nH]2)c2ccc(C)cc21 | 0.223 |
| CCn1c(SCC(=O)c2c(N)n(C)c(=O)n(C)c2=O)nnc1-c1ccccc1 | -0.454 |
| O=c1cc(Cn2ccnc2)c2cc3c(cc2o1)CCC3 | -0.907 |
| Cc1cc(C(=O)Nc2ccccc2)c(C)o1 | 0.0608 |
| CCc1ccc(CN(C(=O)c2cc3ccccc3oc2=O)C2CCS(=O)(=O)C2)cc1 (stereo unspecified) | -0.0477 |
| COCc1cc(C)n(CC(=O)Nc2ccc(Cl)cc2Cl)c(=O)c1C#N | -0.169 |
| Cc1cc(NC(=O)c2ccccc2-c2ccccc2)ccc1Br | -0.2 |
| CCCC1(C(=O)OCC)NC(c2ccc(OC)cc2OC)C2C(=O)N(c3ccc4c(c3)OCCO4)C(=O)C21 (stereo unspecified) | 0.33 |
| COC(=O)c1ccc(C)c(NC(=O)CCSc2ccc(Cl)cc2)c1 | -0.0919 |
| O=C(NCc1cccnc1)NC1CCCN1S(=O)(=O)c1ccc(Cl)cc1 (stereo unspecified) | -0.196 |
| COc1cccc(C(=O)N2c3ccccc3Sc3ccccc32)c1 | -0.594 |
| CCNc1nc(N)nc(Oc2ccc(OCCOc3ccccc3)nn2)n1 | -0.223 |
| CCOc1ccc(OCCCC(=O)O)cc1 | -0.228 |
| COc1ccc(OCC(=O)NCCCN2CCOCC2)cc1 | 0.807 |
| C/C(=N\Nc1cc(Cl)nc(C)n1)c1ccc(C)cc1 | -0.214 |
| COC(=O)c1ccccc1NC(=O)Nc1cc(C)cc(C)n1 | 0.889 |
| CN(C)CCCn1c(NCc2ccc3c(c2)OCO3)nc2ccccc21 | -0.352 |
| Cc1ccc(-c2cc(C(=O)NCCc3ccccn3)c3ccccc3n2)c(C)c1 | -0.736 |
| Cc1ccc(S(=O)(=O)N2CCCC2)cc1C(=O)O | 0.0535 |
